Laboratory results as given in PubChem BioAssay AID463173 (ICCB-Longwood Screening Facility, Harvard Medical School, 2010).
Among all 52,000 compounds or so, about 4,300 (8.3%) were called active. Rule as the data show it: active = survival mostly below about 52% (no sharp cut-off); inactive = mostly above about 56%. The list shows a part of the results.

tested on: DeltatarO mutant; assay: growth inhibition of S. aureus wild type versus tarO mutant, primary screen, teichoic acid synthesis inhibitors, RN4220, OD600 (AID 463173); conditions: OD600, 18 h, hits give low values, screened at 18.75 µg/mL (by protocol)

Row | Structure (SMILES) | survival
1 | O=C(CSc1nnnn1-c1ccc2c(c1)OCCO2)NC1CCCC1 | inactive: 79%
2 | CCn1ccc2c(OCC(=O)NCc3ccccc3)cccc2c1=O | inactive: 102%
3 | Cc1ccc(S(=O)(=O)c2[nH]c(-c3ccccc3)nc2SCCC(=O)O)cc1 | inactive: 78%
4 | COCCn1c(SCC(=O)Nc2sc(C)c(C)c2C#N)nnc1C(C)C | inactive: 86%
5 | CCCn1c(=N)n(CC(O)COc2ccccc2OC)c2ccccc21 (centres undefined) | inactive: 88%
6 | Cc1cccc(N(Cc2cc3ccccc3[nH]c2=O)C(=O)c2cccc(Cl)c2)c1 | inactive: 76%
7 | CCOc1ccc(NC(=O)c2c(Nc3ccccc3C)sc(C(=O)c3ccc(Cl)cc3)c2N)cc1 | inactive: 126%
8 | Cc1nn(CC(=O)N2CCN(c3cccc(C(F)(F)F)c3)CC2)c(=O)c2cc3sccc3n12 | inactive: 90%
9 | COc1ccccc1CNC(=O)C1CCCN(c2nnc(C)c3c(C)n(-c4ccccc4)nc23)C1 (centres undefined) | inactive: 86%
10 | CN(C)c1ccc(NC(=O)CSc2nc3ccccc3cc2C#N)cc1 | inactive: 66%
11 | CN1CCN(C(=S)NC(=O)c2ccccc2)CC1 | inactive: 100%
12 | O=C(CCSCc1cccc(Cl)c1)NCc1ccc(F)cc1Cl | inactive: 102%
13 | Cc1ccc2[nH]c(CSc3nnc(NC(=O)c4ccccc4F)s3)cc(=O)c2c1 | inactive: 83%
14 | CC(C)(C)C1CCc2nc(NC(=O)c3ccc([N+](=O)[O-])cc3)sc2C1 (centres undefined) | inactive: 95%
15 | CC1Cn2c(C(=O)NCc3cccc(Br)c3)cc3cccc(c32)S1 (centres undefined) | inactive: 87%
16 | COC(=O)c1ccc(Nc2cc(=O)[nH]c(=O)[nH]2)cc1 | inactive: 79%
17 | COc1ccc2oc(-c3ccc(C)c(NC(=O)c4ccc(-c5ccccc5[N+](=O)[O-])o4)c3)nc2c1 | active: 42%
18 | Cc1ccc(C(=O)O)cc1NC1(c2ccccc2)C(=O)c2ccccc2C1=O | inactive: 135%
19 | Cc1c(Cl)cccc1NC(=O)CSc1nc2ncccc2o1 | active: 6%
20 | COc1cccc(/C=C/c2nc(C#N)c(NCCc3ccccc3)o2)c1 | inactive: 90%
21 | COc1ccc(C(=O)Nc2ccc3oc(-c4cccnc4)nc3c2)cc1 | inactive: 53%
22 | Clc1cccc(N2CCN(c3nc4ccccc4n4nnnc34)CC2)c1 | inactive: 74%
23 | COc1ccc(C2C=C(c3ccccc3)Nc3nc(NC(=O)c4cccc([N+](=O)[O-])c4)nn32)cc1 (centres undefined) | inactive: 55%

Row | Structure (SMILES) | survival
24 | COc1ccccc1-c1nc(SCC(=O)NCc2ccc(C)cc2)c2c(=O)n(C)c(=O)n(C)c2n1 | inactive: 69%
25 | Cc1ccc(NC(=O)CNC2CCCCC2)cc1Cl | inactive: 61%
26 | S=c1[nH]nc(-c2ccncc2)n1Cc1ccccc1 | inactive: 63%
27 | Cc1cccc(CN2C(=O)N(c3ccc(C(C)C)cc3)S(=O)(=O)c3ccccc32)c1 | inactive: 88%
28 | Cc1ccc(-c2ccc(=O)n(CC(=O)Nc3ccc(C)cc3Cl)n2)cc1 | inactive: 50%
29 | O=C(CSc1nnc(CNc2ccc(F)cc2)o1)N1c2ccccc2Sc2ccccc21 | inactive: 97%
30 | Cc1ccc(Cl)cc1N1CCN(C(=O)c2ccc(NC(=O)c3nsc4ccccc34)cc2)CC1 | active: 6%
31 | CCOC(=O)COc1ccc(CC)cc1C(=O)c1ccn2nc(-c3ccccc3)cc2n1 | inactive: 78%
32 | COC(=O)c1sccc1S(=O)(=O)N1CCN(c2cc(Cl)ccc2C)CC1 | inactive: 83%
33 | COCCNC(=O)CCn1c(=O)c2cc(OC)c(OC)cc2n(CC(=O)Nc2ccc(Cl)cc2F)c1=O | inactive: 67%
34 | Cc1ccc(-c2n[nH]c3c2C(c2ccc(C(C)(C)C)cc2)NC3=O)cc1 (centres undefined) | inactive: 109%
35 | Cc1nn(S(=O)(=O)c2ccc(C(C)(C)C)cc2)c(C)c1S(=O)(=O)N1CCCCCC1 | inactive: 83%
36 | Cc1ccc(NC(=O)c2oc3ccc(S(=O)(=O)N4CCC5(CC4)OCCO5)cc3c2C)cc1C | inactive: 123%
37 | C=C(C)Cn1c(CO)nc2ccccc21 | inactive: 73%
38 | Cc1ccc(OCC(=O)Nc2cccc(-c3nc4ccccc4s3)c2)cc1 | active: 47%
39 | Cc1c(C(=O)NCc2ccccc2)sc2nc3n(c(=O)c12)CCCCC3 | inactive: 56%
40 | CCOC(=O)c1ccc(NC(=O)C2CCCN(c3ncnc4onc(-c5ccc(F)cc5)c34)C2)cc1 (centres undefined) | inactive: 94%
41 | COc1cccc(CNC(=O)c2sc3nc(C)cc(C)c3c2-n2cccc2)c1OC | inactive: 74%
42 | CC(=O)c1cccc(NC(=O)C2CCN(C(=O)c3cnn(-c4ccccc4)c3-n3cccc3)CC2)c1 | inactive: 109%
43 | Cc1c(C(=O)NCc2ccccc2Cl)sc2nc3n(c(=O)c12)CCCCC3 | inactive: 90%
44 | Cc1cn2c(=O)cc(COC(=O)c3cccc(NC(=O)c4ccc(C(C)(C)C)cc4)c3)nc2s1 | inactive: 103%
45 | CCn1cc2nc(SCC(=O)Nc3ccc(OC)c(OC)c3)n(Cc3ccc(Cl)cc3)c(=O)c2n1 | inactive: 46%
46 | COc1ccc(-c2cc(-c3ccc(F)cc3)nc3c2COc2ccc(F)cc2-3)cc1 | inactive: 65%

Row | Structure (SMILES) | survival
47 | CCOc1ccc(-n2c(/C=C/c3cccc(F)c3)nc3cc(OC)c(OC)cc3c2=O)cc1 | inactive: 73%
48 | COc1ccc(-c2oc3ncn4nc(-c5ccccc5O)nc4c3c2-c2ccc(OC)cc2)cc1 | inactive: 62%
49 | Cc1nn2c(=O)cc(COC(=O)c3cccc(NC(=O)CCc4ccccc4)c3)nc2s1 | inactive: 72%
50 | Cc1ccccc1-c1nc2scc(CCNS(=O)(=O)c3ccccc3)n2n1 | inactive: 81%
51 | CCC1CN(C(=O)N2CCC(C(=O)NCc3ccc(N(C)C)cc3)CC2)c2ccccc2O1 (centres undefined) | inactive: 73%
52 | CCCCC(=O)NCc1nc2cccnc2n1Cc1ccc(OC)cc1 | inactive: 92%
53 | CCOC(=O)c1ccc(N2CCN(c3cc(C)ccc3C)CC2)c(NC(=O)Nc2ccc(CC)cc2)c1 | inactive: 79%
54 | Cc1cccc(-c2cc3nc(-c4ccccc4)cc(=O)n3[nH]2)c1 | inactive: 97%
55 | Cc1ccc2c(c1)C(Cc1ccccc1F)C(=O)N2 (centres undefined) | inactive: 115%
56 | Cc1cc(C)nc(NC(=O)COc2ccc(Br)cc2)n1 | inactive: 84%
57 | COc1ccc(CCNC(=O)C(CC(C)C)N2Cc3ccccc3C2=O)c(OC)c1OC (centres undefined) | inactive: 88%
58 | CCn1cc(CCC(=O)NCc2ccc(C)cc2)c2ccccc21 | inactive: 77%
59 | COc1cc2c(=O)n(Cc3ccccc3Cl)c(=O)n(CC(=O)Nc3ccc(C)c(C)c3)c2cc1OC | inactive: 83%
60 | CC(C)Oc1ccccc1C1C=C(C(=O)O)Nc2ncnn21 (centres undefined) | inactive: 128%
61 | COc1ccc(CCn2c3c(c(=O)[nH]c2=O)C(NC(=O)c2ccccc2F)(C(F)(F)F)C(=O)N3)cc1OC (centres undefined) | inactive: 60%
62 | S=C(NCCCN1CCOCC1)Nc1ccccc1 | inactive: 89%
63 | COc1ccc(C)cc1NC(=O)C1CCN(S(=O)(=O)c2ccc3[nH]c(=O)oc3c2)CC1 | inactive: 80%
64 | Cc1cccc(C(=O)Nc2cc(-c3nc4cccnc4s3)ccc2C)c1 | active: 45%
65 | O=C1CN(C(=O)COc2ccc(Cl)cc2)C(c2ccccc2)c2cc(Br)ccc2N1 (centres undefined) | inactive: 60%
66 | O=C(NCc1ccccc1)C1CCCN(S(=O)(=O)c2cccc3nsnc23)C1 (centres undefined) | inactive: 99%
67 | CC(C)(C)OC(=O)N1CCC(c2c(C(=O)Nc3ccc4c(c3)OCCO4)cnn2-c2ccc(Cl)cc2)CC1 | inactive: 87%
68 | CCOc1ccc(NC(=O)CN2C(=O)CC(C)Sc3ccccc32)cc1 (centres undefined) | inactive: 83%
69 | O=C(NCc1cccnc1)c1cnn2c(C(F)F)cc(-c3ccccc3)nc12 | inactive: 77%

Row | Structure (SMILES) | survival
70 | CC(=O)Nc1ccc(/C=C/c2nc(-c3ccccc3O)n(-c3ccccc3)n2)cc1 | inactive: 84%
71 | Cn1c(=O)oc2cc(S(=O)(=O)N3CCCC(C(=O)NCCc4ccc(Cl)cc4)C3)ccc21 (centres undefined) | inactive: 86%
72 | COc1ccccc1CNS(=O)(=O)c1ccc2c(c1)NC(=O)C(C)C(=O)N2 (centres undefined) | inactive: 71%
73 | Cc1ccc2occ(CC(=O)N(Cc3ccccc3Cl)C3CCS(=O)(=O)C3)c2c1 (centres undefined) | inactive: 77%
74 | O=C(CSc1oc(-c2ccccc2)nc1S(=O)(=O)c1ccc(Cl)cc1)Nc1ccc(F)cc1 | inactive: 162%
75 | CC1CCC(Nc2nc3c(-c4ccc(Cl)cc4)nnn3c3ccccc23)CC1 (centres undefined) | active: 8%
76 | CCn1c(SC)nnc1C1CCCN1CC(=O)N1CCN(Cc2ccc3c(c2)OCO3)CC1 (centres undefined) | inactive: 79%
77 | CC(=O)c1ccc(NC(=O)CN2C(=O)CCc3ccccc32)cc1 | inactive: 84%
78 | CCOc1ccc(N(C)C(=O)CS(=O)(=O)c2cccc3nsnc23)cc1 | inactive: 73%
79 | COC(=O)CSc1ncc2c(n1)-c1ccccc1N(Cc1ccccc1C)S2(=O)=O | inactive: 99%
80 | O=C(Cn1cc(SCc2ccc(C(F)(F)F)cc2)c2ccccc21)N1CCOCC1 | inactive: 85%
81 | Cc1cccc(-c2nc(C)c(CCNC(=O)C(=O)Nc3cccc(Cl)c3C)s2)c1 | inactive: 86%
82 | O=C(NCc1ccccc1)c1cc2sccc2n1Cc1ccc(Cl)cc1 | inactive: 101%
83 | COC(=O)c1ccccc1NC(=O)Cn1c(CCC(=O)O)ccc1-c1cccs1 | inactive: 54%
84 | Cc1ccc2c(c1)c1c3n2CCN(C(=O)Cn2c(-c4ccccc4)noc2=O)C3CCC1 (centres undefined) | inactive: 90%
85 | Cc1ccc(-c2nc(-c3cc4c([nH]c3=O)CC(C)(C)CC4=O)sc2C)cc1 | inactive: 89%
86 | O=C(c1ccco1)n1nc(-c2ccccc2)nc1NCc1ccc(Cl)cc1 | inactive: 91%
87 | Cc1nn(-c2ccccc2)c2c1N(CCCC(=O)NCc1ccc(N(C)C)cc1)C(=O)CS2 | inactive: 87%
88 | CCC(=O)N1c2ccccc2CC1C(=O)N1CCN(c2cccc(Cl)c2)CC1 (centres undefined) | inactive: 77%
89 | COc1ccc(CC(=O)Nc2sc3c(c2C(=O)Nc2cccc(Cl)c2)CCCCC3)cc1 | inactive: 59%
